The record followed here is the supplement of paper PMC4604168 (melanoma cell lines).

The other results are listed elsewhere or left out. Many values rest on one well or one pass, so single values are uncertain.
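Also: cell number obtained by counting DAPI-stained nuclei in high-throughput microscope images with image analysis software, screen run in 1,536-well plates.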

The assay deals with COLO792. The experiment in a line: cell count relative to DMSO control; melanoma cells; higher = more viable cells. The following applies: library dose: low library concentration; 72 h.
Consider `CCN(CC)CCNC(=O)c1c(C)[nH]c(/C=C2\C(=O)Nc3ccc(F)cc32)c1C` [sunitinib] + CNC(=O)c1cc(Oc2ccc(NC(=O)Nc3ccc(Cl)c(C(F)(F)F)c3)cc2)ccn1 [sorafenib] (first compound 0.4 µM, partner dose 0.4 µM), for which the cell count was determined as 123%. Take `C[C@]1(O)C[C@@H](c2nc(-c3ccc4ccc(-c5ccccc5)nc4c3)c3c(N)nccn32)C1` + C=C(c1ccc(C(=O)O)cc1)c1cc2c(cc1C)C(C)(C)CCC2(C)C [Bexarotene] (first compound 0.4 µM, partner dose 2 µM): the cell count was 103%. The same measure for `CCN(CC)CCNC(=O)c1c(C)[nH]c(/C=C2\C(=O)Nc3ccc(F)cc32)c1C` [sunitinib] + CN(c1ncccc1CNc1nc(Nc2ccc3c(c2)CC(=O)N3)ncc1C(F)(F)F)S(C)(=O)=O [PF562271] (first compound 0.4 µM, partner dose 0.08 µM): 103%; for `CCN(CC)CCNC(=O)c1c(C)[nH]c(/C=C2\C(=O)Nc3ccc(F)cc32)c1C` [sunitinib] + NC1(c2ccc(-c3nc4ccn5c(=O)[nH]nc5c4cc3-c3ccccc3)cc2)CCC1 [MK2206] (first compound 0.4 µM, partner dose 0.4 µM): 66.9%.

`Cn1cnc2c(F)c(Nc3ccc(Br)cc3Cl)c(C(=O)NOCCO)cc21` [selumetinib] + CNC(=O)c1cc(Oc2ccc(NC(=O)Nc3ccc(Cl)c(C(F)(F)F)c3)cc2)ccn1 [sorafenib] (first compound 0.015 µM, partner dose 0.4 µM): the cell count came out at 83.1%. As for `Cn1cnc2c(F)c(Nc3ccc(Br)cc3Cl)c(C(=O)NOCCO)cc21` [selumetinib] + Cc1cc(Nc2cc(N3CCN(C)CC3)nc(/C=C/c3ccccc3)n2)n[nH]1 [ENMD2076] (first compound 0.015 µM, partner dose 0.04 µM), the cell count was 80.2%.

As to `COc1cc([C@@H]2c3cc4c(cc3[C@@H](O[C@@H]3O[C@@H]5CO[C@@H](C)O[C@H]5[C@H](O)[C@H]3O)[C@H]3COC(=O)[C@H]23)OCO4)cc(OC)c1O` [etoposide] + Nc1nc(F)nc2c1ncn2[C@@H]1O[C@H](CO)[C@@H](O)[C@@H]1O [fludarabine] (first compound 0.02 µM, partner dose 0.2 µM), the cell count was 99.7%. Consider `COc1cc([C@@H]2c3cc4c(cc3[C@@H](O[C@@H]3O[C@@H]5CO[C@@H](C)O[C@H]5[C@H](O)[C@H]3O)[C@H]3COC(=O)[C@H]23)OCO4)cc(OC)c1O` [etoposide] + Cn1sc(=O)n(Cc2ccccc2)c1=O [TDZD-8] (first compound 0.02 µM, partner dose 0.4 µM), for which the cell count was determined as 93.6%. In the case of `Cn1cnc2c(F)c(Nc3ccc(Br)cc3Cl)c(C(=O)NOCCO)cc21` [selumetinib] + CO[C@H]1C[C@@H]2CC[C@@H](C)[C@@](O)(O2)C(=O)C(=O)N2CCCC[C@H]2C(=O)O[C@H]([C@H](C)C[C@@H]2CC[C@@H](OCCO)[C@H](OC)C2)CC(=O)[C@H](C)/C=C(\C)[C@@H](O)[C@@H](OC)C(=O)[C@H](C)C[C@H](C)/C=C/C=C/C=C/1C [everolimus] (first compound 0.015 µM, partner dose 0.02 µM), the cell count came out at 52.8%. The compound `Cn1cnc2c(F)c(Nc3ccc(Br)cc3Cl)c(C(=O)NOCCO)cc21` [selumetinib] + COc1ccc(C2=N[C@@H](c3ccc(Cl)cc3)[C@@H](c3ccc(Cl)cc3)N2C(=O)N2CCNC(=O)C2)c(OC(C)C)c1 [Nutlin-3] (first compound 0.015 µM, partner dose 0.1 µM) showed a cell count of 65.5%. In turn, `C[C@]1(O)C[C@@H](c2nc(-c3ccc4ccc(-c5ccccc5)nc4c3)c3c(N)nccn32)C1` + CN(c1ncccc1CNc1nc(Nc2ccc3c(c2)CC(=O)N3)ncc1C(F)(F)F)S(C)(=O)=O [PF562271] (first compound 0.4 µM, partner dose 0.08 µM) gave a cell count of 93%. For `CCN(CC)CCNC(=O)c1c(C)[nH]c(/C=C2\C(=O)Nc3ccc(F)cc32)c1C` [sunitinib] + CC(=O)c1c(C)c2cnc(Nc3ccc(N4CCNCC4)cn3)nc2n(C2CCCC2)c1=O [palbociclib] (first compound 0.4 µM, partner dose 0.04 µM), the cell count turned out to be 63.7%. As for `C[C@]1(O)C[C@@H](c2nc(-c3ccc4ccc(-c5ccccc5)nc4c3)c3c(N)nccn32)C1` + CNC(=O)c1cc(Oc2ccc(NC(=O)Nc3ccc(Cl)c(C(F)(F)F)c3)cc2)ccn1 [sorafenib] (first compound 0.4 µM, partner dose 0.4 µM), the cell count is 111%. Compound `Cn1cnc2c(F)c(Nc3ccc(Br)cc3Cl)c(C(=O)NOCCO)cc21` [selumetinib] + COc1ccc(Cl)c(Nc2nc3ccccc3nc2NS(=O)(=O)c2cccc(NC(=O)C(C)(C)N)c2)c1 [XL147] (first compound 0.015 µM, partner dose 0.8 µM) came in with a cell count of 84.4%.

`Cn1cnc2c(F)c(Nc3ccc(Br)cc3Cl)c(C(=O)NOCCO)cc21` [selumetinib] + CN(c1ncccc1CNc1nc(Nc2ccc3c(c2)CC(=O)N3)ncc1C(F)(F)F)S(C)(=O)=O [PF562271] (first compound 0.015 µM, partner dose 0.08 µM) had a cell count of 66.5%. `C[C@]1(O)C[C@@H](c2nc(-c3ccc4ccc(-c5ccccc5)nc4c3)c3c(N)nccn32)C1` + CCCCCCCCc1ccc(CCC(N)(CO)CO)cc1 [fingolimod] (first compound 0.4 µM, partner dose 2 µM) yielded a cell count of 91.2%. In turn, `Cn1cnc2c(F)c(Nc3ccc(Br)cc3Cl)c(C(=O)NOCCO)cc21` [selumetinib] + CCCCCCCCc1ccc(CCC(N)(CO)CO)cc1 [fingolimod] (first compound 0.015 µM, partner dose 2 µM) displayed a cell count of 69.1%. `CCN(CC)CCNC(=O)c1c(C)[nH]c(/C=C2\C(=O)Nc3ccc(F)cc32)c1C` [sunitinib] + CN1CCN(c2ccc3nc(-c4c(N)c5c(F)cccc5[nH]c4=O)[nH]c3c2)CC1 [Dovitinib] (first compound 0.4 µM, partner dose 0.1 µM): the cell count was found to be 86.7%. The same measure for `Cn1cnc2c(F)c(Nc3ccc(Br)cc3Cl)c(C(=O)NOCCO)cc21` [selumetinib] + Cn1c(Nc2ccc(C(F)(F)F)cc2)nc2cc(Oc3ccnc(-c4ncc(C(F)(F)F)[nH]4)c3)ccc21 [CHIR265] (first compound 0.015 µM, partner dose 0.08 µM): 38%; for `COc1cc([C@@H]2c3cc4c(cc3[C@@H](O[C@@H]3O[C@@H]5CO[C@@H](C)O[C@H]5[C@H](O)[C@H]3O)[C@H]3COC(=O)[C@H]23)OCO4)cc(OC)c1O` [etoposide] + O=C(Nc1cc(C(F)(F)F)cc(C(F)(F)F)c1)c1cc(Cl)ccc1O [IMD0354] (first compound 0.02 µM, partner dose 0.016 µM): 97.9%. The same measure for `CCN(CC)CCNC(=O)c1c(C)[nH]c(/C=C2\C(=O)Nc3ccc(F)cc32)c1C` [sunitinib] + CC(=O)O[C@@]12CO[C@@H]1C[C@H](O)[C@@]1(C)C(=O)[C@H](O)C3=C(C)[C@@H](OC(=O)[C@H](O)[C@@H](NC(=O)OC(C)(C)C)c4ccccc4)C[C@@](O)([C@@H](OC(=O)c4ccccc4)[C@H]21)C3(C)C [Docetaxel] (first compound 0.4 µM, partner dose 0.0001 µM): 45.7%; for `C[C@]1(O)C[C@@H](c2nc(-c3ccc4ccc(-c5ccccc5)nc4c3)c3c(N)nccn32)C1` + CN1CCN(c2ccc3nc(-c4c(N)c5c(F)cccc5[nH]c4=O)[nH]c3c2)CC1 [Dovitinib] (first compound 0.4 µM, partner dose 0.1 µM): 91%. The compound `C[C@]1(O)C[C@@H](c2nc(-c3ccc4ccc(-c5ccccc5)nc4c3)c3c(N)nccn32)C1` + CC(C)C[C@H](NC(=O)[C@H](Cc1ccccc1)NC(=O)c1cnccn1)B(O)O [Bortezomib] (first compound 0.4 µM, partner dose 0.001 µM) came in with a cell count of 87.1%.
